In all, about 50,000 compounds went through this assay and about 800 (1.6%) showed an effect of 50% or more. The list shows a part of the results.
Biological target: Bcl-2-like protein 10 (Homo sapiens) (UniProt Q9HD36)
Experiment: TR3 peptide-Bcl-B binding displacers, biochemical primary FP assay, phenotype converters (AID 1240);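 further: 0% = Bcl-B with tracer peptide and DMSO and 100% = tracer peptide lacking Bcl-B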
Settings: GST-Bcl-B / FITC-TR3 peptide fluorescence polarization; stronger effect = higher value; compound at 3.75 mg/L

Sequence of UniProt Q9HD36 (Q9HD36 whole entry, looked up): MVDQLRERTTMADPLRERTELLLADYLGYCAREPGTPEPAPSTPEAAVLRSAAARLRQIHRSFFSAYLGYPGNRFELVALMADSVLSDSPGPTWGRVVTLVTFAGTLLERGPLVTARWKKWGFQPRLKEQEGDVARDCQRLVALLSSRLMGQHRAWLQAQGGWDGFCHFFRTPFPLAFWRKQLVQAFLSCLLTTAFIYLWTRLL

Row | Compound | displacement [%]
1 | Cc1ccc(S(=O)(=O)Nc2cc(C)c(O)c(Sc3nc4ccccc4s3)c2)cc1 | -2.2
2 | CC(=O)N(C1=C(Cl)C(=O)c2ccccc2C1=O)c1cccc(Br)c1 | 34.4
3 | CCOc1ccccc1N(CC(=O)N1CCCC1)S(=O)(=O)c1ccccc1 | 8.7
4 | CC(=O)C1=C(C)NC(C)=C(C(C)=O)C1c1ccc(-c2ccccc2[N+](=O)[O-])o1 | 10.8
5 | O=c1cnnc(N/N=C/c2ccc(Br)cc2)[nH]1 | -7.7
6 | CC1=C(C(=O)OC(C)C)C(c2cccc(Cl)c2Cl)C2=C(CC(C)(C)CC2=O)N1 (stereo not given) | 12.1
7 | O=C(N/N=C/c1cccc(Br)c1)c1ccc(N2CCCC2=O)cc1 | -0.6
8 | O=C1C(=O)N(c2cccnc2)C(c2ccccc2)/C1=C(\O)c1ccc(Cl)cc1 (stereo not given) | 4.7
9 | CC1CCc2c(sc(NC(=O)c3ccccc3[N+](=O)[O-])c2C(=O)OC(C)C)C1 (stereo not given) | 9.6
10 | COc1ccc(OC)c(NC(=S)NC(=O)c2ccco2)c1 | 11.6
11 | O=C(Nc1ccccc1C(=O)N1CCN(Cc2ccccc2)CC1)c1ccccc1F | 12.8
12 | S=C(Nc1ccc2nccnc2c1)N1CCOCC1 | -1.7
13 | CCc1ccc(/C=C(/C#N)c2nc(-c3ccc(Br)cc3)cs2)cc1 | -3.5
14 | COC(=O)C1=C(C)N(Cc2cccnc2)C(=O)/C1=C\c1ccc(Br)cc1 | -7.5
15 | CC(C)COC(=O)c1ccc(NC(=O)c2cccs2)cc1 | -6
16 | O=C1NC(=S)S/C1=C/c1ccncc1 | -10.1
17 | CCOC(=O)c1cc(CC)sc1NC(=O)COc1ccc(Cl)cc1Cl | -5.2
18 | COc1cc(/C=C2\SC(=S)N(c3ccc([N+](=O)[O-])cc3)C2=O)ccc1OC(=O)c1cccc(C)c1 | -3
19 | CCOC(=O)c1c(-c2ccccc2)oc2cc(Br)c(OC(C)C(=O)OC)cc12 (stereo not given) | 9.9
20 | CCC(=O)c1ccc(N2CCN(C(C)=O)CC2)c(F)c1 | -19.7
21 | CC[n+]1ccc(C(O)P(=O)(c2ccccc2)c2ccccc2)cc1 (stereo not given) | -8
22 | Clc1ccc(-c2csc3nc4ccccc4n23)cc1 | 9
23 | O=C(NNC(=O)c1c(F)c(F)c(F)c(F)c1F)c1ccccc1 | 1.5
24 | O=C(c1cccc(I)c1)N1CCN(c2ccccn2)CC1 | 6.9
25 | COC(=O)c1c(NC(=O)c2cccnc2)sc(C)c1C | 0.7
26 | Cc1c(C)c2ccc(OCC(=O)c3ccc(-c4ccccc4)cc3)cc2oc1=O | 6.4
27 | CCCOC(=O)c1ccc(NC(=O)CC(C)C)cc1 | -7.1
28 | Cc1ccc(NC(=O)CCN2C(=O)S/C(=C\c3ccccc3)C2=O)cc1 | -8.5
29 | CCC(C(=O)Nc1ccc(C)cc1)c1ccccc1 (stereo not given) | -1
30 | CCCOC(=O)C1=C(C)NC2=C(C(=O)CC(C)(C)C2)C1c1ccc(O)c([N+](=O)[O-])c1 (stereo not given) | 2.9
